The text below walks through data of publication PMC5496739.

Residue numbers refer to the chain shown, from its start. Results are given in words; binding and its absence hold for the method and conditions named. In cells and extracts the contact can be indirect. Some entries that bind do so weakly or less than the wild type.

Test [1] addresses T1, MEF-exophilin-8 PA (ABD) mutant (mouse) (UniProt Q8K3I4).
T1 sequence: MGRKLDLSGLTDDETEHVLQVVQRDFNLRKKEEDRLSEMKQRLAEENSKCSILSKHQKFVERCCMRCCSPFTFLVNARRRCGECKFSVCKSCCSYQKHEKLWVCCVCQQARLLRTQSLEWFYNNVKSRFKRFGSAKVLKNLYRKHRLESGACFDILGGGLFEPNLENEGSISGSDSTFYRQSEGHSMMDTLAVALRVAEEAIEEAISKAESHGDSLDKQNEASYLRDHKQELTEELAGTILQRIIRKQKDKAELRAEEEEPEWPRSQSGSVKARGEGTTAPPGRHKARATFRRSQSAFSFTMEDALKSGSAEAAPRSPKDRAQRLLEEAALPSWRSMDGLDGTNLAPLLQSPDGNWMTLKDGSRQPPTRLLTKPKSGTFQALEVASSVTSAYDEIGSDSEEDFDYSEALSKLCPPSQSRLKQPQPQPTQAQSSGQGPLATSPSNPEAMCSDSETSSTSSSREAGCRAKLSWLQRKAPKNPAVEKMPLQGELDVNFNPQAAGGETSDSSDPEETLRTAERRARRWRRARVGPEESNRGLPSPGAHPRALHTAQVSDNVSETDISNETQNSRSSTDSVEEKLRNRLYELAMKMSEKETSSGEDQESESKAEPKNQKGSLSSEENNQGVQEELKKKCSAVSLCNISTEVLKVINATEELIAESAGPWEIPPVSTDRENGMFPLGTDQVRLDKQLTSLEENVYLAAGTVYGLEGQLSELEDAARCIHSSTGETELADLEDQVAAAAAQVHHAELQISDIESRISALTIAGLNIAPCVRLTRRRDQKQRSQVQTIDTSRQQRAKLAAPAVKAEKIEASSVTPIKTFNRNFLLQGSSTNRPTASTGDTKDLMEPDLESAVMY
As to the kind of experiment: co-IP; MIN6 cells infected with adenovirus encoding MEF-tagged exophilin-8 or control GFP; anti-FLAG immunoprecipitates blotted with anti-RIM-BP2.

Test [2] addresses T2, MEF-exophilin-8 (wild type) (mouse) (UniProt Q8K3I4).
T2 sequence: T1 sequence with A798R, A801P, A804P
Described as above.

For test [3], the target named is T3, exophilin-8 PA (ABD) mutant expressed in HEK293A cells (mouse) (UniProt Q8K3I4).
T3 sequence: T1 sequence
The test is described as follows: co-IP; HEK293A cells transfected with plasmids for RIM-BP2, exophilin-8 and their deletion or point mutants; immunoprecipitates with anti-FLAG or anti-HA antibodies blotted with anti-FLAG, anti-GFP and anti-HA.

Test [4] concerns the target T4, exophilin-8 (wild type) expressed in HEK293A cells (mouse) (UniProt Q8K3I4).
T4 sequence: T1 sequence with A798R, A801P, A804P
Described as above.

Test [5] deals with T5, exophilin-8 PA (MBD) mutant expressed in HEK293A cells (mouse) (UniProt Q8K3I4).
T5 sequence: T1 sequence with R474A, P477A, P480A, A798R, A801P, A804P
The description is as above.

Test [6] concerns the target T6, exophilin-8, endogenous in INS-1 832/13 cells (rat (endogenous in INS-1 832/13)) (UniProt Q7TNY7).
T6 sequence: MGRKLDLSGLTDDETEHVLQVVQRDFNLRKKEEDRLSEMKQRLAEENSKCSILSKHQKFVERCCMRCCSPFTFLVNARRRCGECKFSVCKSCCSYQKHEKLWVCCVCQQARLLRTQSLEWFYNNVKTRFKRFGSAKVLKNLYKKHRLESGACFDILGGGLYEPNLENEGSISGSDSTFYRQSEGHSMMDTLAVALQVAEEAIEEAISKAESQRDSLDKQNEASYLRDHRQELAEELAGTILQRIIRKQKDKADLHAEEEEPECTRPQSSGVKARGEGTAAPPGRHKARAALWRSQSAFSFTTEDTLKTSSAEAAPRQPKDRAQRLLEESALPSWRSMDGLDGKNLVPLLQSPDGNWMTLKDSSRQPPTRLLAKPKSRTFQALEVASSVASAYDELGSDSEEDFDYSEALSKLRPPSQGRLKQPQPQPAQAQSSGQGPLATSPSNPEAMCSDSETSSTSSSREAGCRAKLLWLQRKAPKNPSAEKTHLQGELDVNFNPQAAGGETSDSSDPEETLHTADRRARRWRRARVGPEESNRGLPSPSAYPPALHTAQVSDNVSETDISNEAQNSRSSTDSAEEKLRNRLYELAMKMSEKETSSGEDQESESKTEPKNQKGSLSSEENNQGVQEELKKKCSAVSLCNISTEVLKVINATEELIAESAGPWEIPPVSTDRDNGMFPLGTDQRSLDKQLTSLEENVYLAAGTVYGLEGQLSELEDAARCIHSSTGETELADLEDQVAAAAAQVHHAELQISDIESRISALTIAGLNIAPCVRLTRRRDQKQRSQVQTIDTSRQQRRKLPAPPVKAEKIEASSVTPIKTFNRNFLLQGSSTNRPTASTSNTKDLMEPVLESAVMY
As to the kind of experiment: co-IP; INS-1 832/13 cells, endogenous proteins; immunoprecipitates with anti-exophilin-8 antibody or control IgG blotted with anti-RIM-BP2.

B1: RIM-BP2, endogenous in MIN6 cells (protein, UniProt Q80U40 1-1072)
chain: MREAAERRQQLELEHEQALAFLNAKQQEIQLLQQAQVEAKKEHEGAVQLLESKVRELEEKCRVQSEQFNLLSRDLEKFRQHTGSIDLLGSSSVALLDVPLAPGKPFPQYMNGLATSIHKGHEGPTGHYSVIGDYIPLSGDKLESPCVKPSFLLRSSSPRCRFESEMDNDRNSNNSKQSSSGKVHLCVARYSYNPFDGPNENPEAELPLTAGKYLYVYGDMDEDGFYEGELLDGQRGLVPSNFVDFIQDNESRLAGTLGSEQDQNFLNHSGISLERDSILHLHSPTQVDSGITDNGGGTLDVNIDDIGEDTVPYPRKITLIKQLAKSVIVGWEPPAVPPGWGTVSSYNVLVDKETRMSLALGRRTKALIEKLNTAACTYRISVQCVTSRGNSDELQCTLLVGKDVVVAPSQLRVDNITQISAQLSWLPTNSNYSHIIFLNEEELDIVKAARYKYQFFNLRPNMAYKVKVLAQPHQMPWQLPLEQREKKEACVEFSTLPAGPPAPPQDVTVHAGATAASVQVSWKPPALTPTGLSNGANVTGYGVYAKGQRVAEVIAPTADGTAVELIRLRSLEAKAVSVRTLSVQGESMDSALAAIPPDLLVPPAPHPRTAPPPKPLASDMDTKDQHLGPHVKVDESWEQSRSPGPAHGHMLEPPDMHSAGPGRRSPSPSRILPQPQGAPVSTTVAKAMAREAAQRVAESNRLEKRSLFLEQSSAGQYTNSDEEDGYASPEVKRRGTSVDDFLKGSELGKQPHCCHGDEYHTESSRGSDLSDIMEEDEEELYSEMQLEDGGRRRPSGTSHNALKILGNSTLMGRADRMEHVSRRYSHSGGGSHRHRPAMAPSIDEYTGRDHLSPDFYDESETDPGAEELPARIFVALFDYDPLTMSPNPDAAEEELPFKEGQIIKVYGDKDADGFYRGETCARLGLIPCNMVSEIHADDEEMMDQLLRQGFLPLNTPVEKIERSRRSGRGHSVPTRRMVALYDYDPRESSPNVDVEAELPFCTGDIITVFGEIDEDGFYYGELNGQKGLVPSNFLEEVPDDVEVHLSDAPPHYSHDPPMRSKAKRKKSVHFTP
Regarding B1, the values for the binding result in test [1] and in test [2] were “no binding” and “binds”, respectively.

B2: RIM-BP2 expressed in HEK293A cells (co-immunoprecipitations of Figure 4C,D) (protein, UniProt Q80U40 1-1072)
chain: B1 chain
With B2, the figures for the binding result in test [3], in test [4] and in test [5] were “no binding”, “binds” and “binds”, respectively.

B3: RIM-BP2, endogenous in INS-1 832/13 cells (protein, UniProt Q9JIR1 1-1049)
chain: MREAAERRQQLELEHEQALAILNAKQQEIQLLQQSKVRELEEKCRVQSEQFNLLSRDLEKFRQHAGSIDLLGSNSVALLDVPLAPGKPFSQYMNGLATSIHKGHEGPTGHYSVIGDYIPLSGDKLESPCVKPSFLLRSSSPRCRFESEMDDDRSSNKSKHSSSGKVHLCVARYSYNPFDGPNENPEAELPLTAGKYLYVYGDMDEDGFYEGELLDGQRGLVPSNFVDFIQDNESRFAGTLGSEQDQNFLNHSGISLERDSILHLHSPTQVDSGITDNGGGTLDVNIDDIGEDIVPYPRKITLIKQLAKSVIVGWEPPAVPPGWGTVSSYNVLVDKETRMSLALGRRTKALIEKLNTAACTYRISVQCVTSRGNSDELQCTLLVGKDVVVAPSQLRVDNITQISAQLSWLPTNSNYSHIIFLNEEELDIVKAARYKYQFFNLRPNMAYKVKVLAQPHQMPWQLPLEQREKDEACVEFSTLPAGPPAPPQDVTVQAGATTASVQVSWKPPALTPTGLSNGANVTGYGVYAKGQRVAEVIAPTANGAAVELVRLRSLEAKAVSVRTLSAQGESMDSALAAIPPDLLVPPAPHPRTAPPPKPLTSDMDTKDLGPHVKVDESWEQSRPPGPAHGHMLEPPDMHSTGPGRRSPSPSRILPQPQGAPVSTTVAKAMAREAAQRVAETSKLEKRSLFLEQSSAGPYANSDEEDGYASPEVKRRGTSVDDFLKGSELGQQPHCCHGDEYHTESSRGSDLSDIMEEDEEELYSEMQLEDGGRRRPSGTSHNALKILGNSALMGRGDRMEHVSRRYSHSGGGPQRHRPMAPSIDEYTGRDHLSPDFYDESETDPGAEELPARIFVALFDYDPLTMSPNPDAAEEELPFKEGQIIKVYGDKDADGFYRGETCARLGLIPCNMVSEIHADDEEMMDQLLRQGFLPLNTPVEKIERSRRSGRGHSVPTRRMVALYDYDPRESSPNVDVEAELLFCTGDIITVFGEIDEDGFYYGELNGQKGLVPSNFLEEVPDDVEVHLSDAPPHYSHDPPMRTKAKRVSQPP
In the case of B3, in test [6], the binding result is “binds”.
